Test results taken from the BET-seq Pho4 binding data (Le et al. 2018).
The list shows a part of the results. These are noisy estimates, calculated here from bound and input reads.

Each sequence was assayed against T1, Pho4 (S. cerevisiae) (UniProt P07270) (assay: relative binding free energy (BET-seq); higher = weaker binding). Conditions: reference: library average.
T1 sequence: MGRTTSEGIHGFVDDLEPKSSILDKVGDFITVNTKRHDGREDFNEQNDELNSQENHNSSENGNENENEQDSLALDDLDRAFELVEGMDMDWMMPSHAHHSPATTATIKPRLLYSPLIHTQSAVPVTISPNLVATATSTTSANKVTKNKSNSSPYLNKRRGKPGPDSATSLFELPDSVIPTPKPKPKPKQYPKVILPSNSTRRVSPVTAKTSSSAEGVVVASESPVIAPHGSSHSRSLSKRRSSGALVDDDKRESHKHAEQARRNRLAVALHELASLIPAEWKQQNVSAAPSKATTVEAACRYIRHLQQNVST

Sequence | relative binding free energy
GCGATCACGTGGTTTG | 0.22 kcal/mol
GTTTTCACGTGTGTAT | 0.35 kcal/mol
AATATCACGTGCAGGT | 0.08 kcal/mol
TACATCACGTGGTGGG | 0.12 kcal/mol
TTATGCACGTGTGTCC | 0.12 kcal/mol
TAGAGCACGTGATGTT | 0.01 kcal/mol
TTCCGCACGTGGTGGG | -0.18 kcal/mol
TTCGGCACGTGTTTTG | -0.03 kcal/mol
TGGAGCACGTGAAGGC | 0.29 kcal/mol
GTAGTCACGTGATGGA | 0.32 kcal/mol
ATAGGCACGTGCGAGT | -0.19 kcal/mol
GTTTACACGTGACAGG | 0.3 kcal/mol
GTTGTCACGTGAAGAA | 0.36 kcal/mol
TCGGACACGTGAGGCG | 0.32 kcal/mol
TTTTTCACGTGAATAG | 0.4 kcal/mol
ATAAGCACGTGGTGGG | -0.13 kcal/mol
CGGGTCACGTGGCAGG | -0.02 kcal/mol
AGGATCACGTGGTGGC | 0.12 kcal/mol
TGAAGCACGTGTAAGG | 0.02 kcal/mol
GTGGGCACGTGAATTA | 0.22 kcal/mol
GTGGTCACGTGTAGTC | 0.17 kcal/mol

Sequence | relative binding free energy
AGTTCCACGTGATTGT | 0.17 kcal/mol
TGTTACACGTGCTGTT | 0.02 kcal/mol
TAGGTCACGTGCATAT | 0.1 kcal/mol
GCGTTCACGTGCTGTG | 0.38 kcal/mol
GGGGACACGTGGATGA | 0.13 kcal/mol
ATATGCACGTGCGGAA | -0.06 kcal/mol
GGGGGCACGTGATAAG | 0.1 kcal/mol
TGACACACGTGATTTT | 0.42 kcal/mol
ATTTTCACGTGAGGAT | 0.36 kcal/mol
CAGTTCACGTGAGTGA | 0.29 kcal/mol
GGGGTCACGTGTGTGG | 0.25 kcal/mol
GGGAACACGTGAGTAT | 0.28 kcal/mol
TTCGACACGTGGTTGT | 0.18 kcal/mol
ATAGGCACGTGGTTTC | -0.13 kcal/mol
ATGAGCACGTGGTGAA | -0.13 kcal/mol
CTTGGCACGTGAAAGG | 0.14 kcal/mol
CTGGTCACGTGGATTT | 0.21 kcal/mol
AGTAACACGTGGTCGT | -0.17 kcal/mol
TTTATCACGTGGTCGC | 0.03 kcal/mol
TTGAGCACGTGGAATG | 0.03 kcal/mol
GGGGTCACGTGAAGCA | 0.42 kcal/mol

Sequence | relative binding free energy
GGAGTCACGTGTGGCG | 0.17 kcal/mol
GTGGGCACGTGGTCGG | -0.07 kcal/mol
TCTGTCACGTGAGGAT | 0.23 kcal/mol
ATGCGCACGTGTAATG | 0.04 kcal/mol
GACGGCACGTGTGGCG | 0.25 kcal/mol
GCGTACACGTGAGTGT | 0.1 kcal/mol
TAAGACACGTGGTGAT | 0.13 kcal/mol
AAGTTCACGTGCTGTG | 0.09 kcal/mol
GCTTTCACGTGGTAAG | 0.25 kcal/mol
GGGGTCACGTGTTGTT | 0.24 kcal/mol
AAGTTCACGTGTCTGG | 0.15 kcal/mol
ATTGCCACGTGAGGAT | 0.21 kcal/mol
GTGTCCACGTGTGTAA | 0 kcal/mol
TGGTACACGTGGGATT | 0.01 kcal/mol
AGGCCCACGTGTGGGG | -0.26 kcal/mol
GAAGGCACGTGGTGCG | -0.17 kcal/mol
CATTTCACGTGGGAGG | -0.03 kcal/mol
GCGGACACGTGGTTGA | 0.22 kcal/mol
TTAGTCACGTGGATGC | 0.24 kcal/mol
TGAGGCACGTGGGATT | -0.1 kcal/mol
GTTTACACGTGGTTGT | 0.17 kcal/mol
